# Experimental data published in PubChem BioAssay AID504832 (National Center for Advancing Translational Sciences (NCATS), 2011).
# Among all 310,000 compounds or so, about 18,000 (5.8%) were called active. The inconclusive results got no clear call from the source; some entries with a clear call stand among them for comparison. Calls follow the shape of the dose curve; as a rule, active = well fitted inhibition curve with a large enough effect; inconclusive = small, poorly fitted or top-dose-only effect, or another doubt; inactive = no such curve, though single readings can be large or run the other way. Potencies of inconclusive entries are left out as doubtful fits.
# Assay: Primary qHTS for delayed death inhibitors of the malarial parasite plastid, 48 hour incubation
# Conditions: P. falciparum luciferase growth in erythrocytes; series mostly up to 28.7 µM
# Summary of the method: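 In quantitative HTS format, infected erythrocytes bearing luciferase-reporter parasites were treated for a single generation at 37 C. Luminescence after adding detection reagent served as the growth measure.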
# Potency is read from the fitted curve at half-maximal effect; tags tell the direction and shape of the fitted curve.
row,Compound,Potency
1,Cc1nc2ccccc2nc(C)c1=NOCc1cccc(Cl)c1,"inconclusive [inhibitor, partial curve, poor fit]"
2,Nc1ccc(-n2nncc2-c2ccc(Cl)cc2)cc1,"inconclusive [inhibitor, partial curve, poor fit]"
3,Cc1c(-c2nc(-c3ccncc3)no2)cccc1[N+](=O)[O-],inactive
4,CCOC(=O)C1CCN(c2cc3c(cc2NC(=O)c2ccccc2F)n(C)c(=O)n3C)CC1,"inconclusive [inhibitor, partial curve]"
5,O=S(=O)(NCC(c1cccnc1)N1CCN(c2ccc(F)cc2)CC1)c1cccs1 (configuration not stated),"inconclusive [inhibitor, single point]"
6,CCC(C)N(C(=O)CSc1ncnc2c1cnn2-c1ccccc1)C1CCS(=O)(=O)C1 (configuration not stated),"inconclusive [inhibitor, single point]"
7,O=C1CCCN1CC(CN1CCOCC1)Sc1nc2ccccc2c(=O)n1-c1ccccc1 (configuration not stated),"inconclusive [inhibitor, single point]"
8,COc1ccc(NC2=NCC(Cc3ccc(Br)cc3)S2)cc1 (configuration not stated),"inconclusive [inhibitor, single point]"
9,CC1=C(C(=O)OCC(C)C)C(c2cc3c(cc2Br)OCO3)NC(=O)N1C (configuration not stated),active: 10.4 µM
10,CCCC(C)NC(=O)Cn1c(=O)c2c(ncn2CCC(C)C)n(Cc2ccccc2)c1=O (configuration not stated),"inconclusive [inhibitor, single point]"
11,N#Cc1ccsc1NC(=O)CN1CCN(c2ccccc2)CC1,inactive
12,CC(C)Cc1nc(Nc2ccc(S(=O)(=O)N3CCCC3)cc2)c2nnn(Cc3ccccc3)c2n1,active: 4.65 µM
13,O=C(COc1ccc2ccccc2c1)N1CCN(C2CCN(Cc3ccccc3)CC2)CC1,"inconclusive [inhibitor, single point]"
14,CCCCN(CC)CCCNC(=O)c1cc2c(=O)[nH]c3ccccc3c2s1,"inconclusive [inhibitor, partial curve]"
15,COc1ccc(OCC(=O)NS(=O)(=O)c2ccccc2)cc1,inactive
16,CC(=O)c1ccc(OCCNS(=O)(=O)c2ccc(-n3cnnn3)cc2)cc1,inactive
17,CCOCC(=O)Nc1cc(Cl)c(OC)cc1OC,inactive
18,COc1ccc(Br)cc1CN(C)C(=O)c1ccc2c(c1)NC(=O)C(C)S2 (configuration not stated),"inconclusive [inhibitor, partial curve]"
19,Cc1cc(C(=O)Cn2nnc(-c3ccc(Cl)cc3)n2)c(C)n1-c1ccccc1,inactive
20,CCc1ccc(CN2CCCC(CNC(=O)c3cccc(OC)c3OC)C2)cc1 (configuration not stated),"inconclusive [inhibitor, single point]"
21,CCOC(=O)c1c(NC(=O)c2ccc(Br)o2)sc(C)c1CC,inactive
22,COc1ccc(NC(=O)CNC(=O)c2c(C)nn(C)c2Cl)cc1,"inconclusive [inhibitor, single point]"
23,CCN(CC)S(=O)(=O)c1ccc2c(c1)N(CC(=O)NCCc1ccc(S(N)(=O)=O)cc1)C(=O)CO2,inactive
24,Cc1ccc(S(=O)(=O)CCC(=O)Nc2nnc(-c3ccco3)o2)cc1,"inconclusive [inhibitor, single point]"

row,Compound,Potency
1,CCN1CCN(c2oc(-c3ccccc3)nc2S(=O)(=O)c2ccc(C)cc2)CC1,active: 13.1 µM
2,CCO[C@@H]1OC(C(=O)NCc2ccccc2)=C[C@H](c2ccccc2)[C@H]1CCCO,"inconclusive [inhibitor, single point]"
3,Cc1cc(C)c2c(N)c(C(=O)NN)sc2n1,"inconclusive [inhibitor, single point]"
4,CN(C)c1nn(C(=O)Nc2ccc(Cl)cc2Cl)cc1-c1ccccc1,"inconclusive [inhibitor, single point]"
5,CCC(C)NS(=O)(=O)c1ccc(OCC(=O)NCc2ccccn2)cc1 (configuration not stated),inactive
6,O=C(Nc1ccc2cn[nH]c2c1)c1ccc(Cl)c(S(=O)(=O)N2CCOCC2)c1,"inconclusive [inhibitor, single point]"
7,CCNS(=O)(=O)c1ccc(NC(=O)Nc2cccc(C(F)(F)F)c2)cc1,"inconclusive [inhibitor, single point]"
8,COc1ccccc1C(C[N+](=O)[O-])c1c[nH]c2ccccc12 (configuration not stated),"inconclusive [inhibitor, partial curve]"
9,COc1ccc(C(=O)Nc2ccc(Cl)cc2C(=O)NCCN2CCOCC2)cc1,"inconclusive [inhibitor, partial curve]"
10,COc1cc(Cl)ccc1NC(=O)COc1ccccc1C(=O)N1CCN(c2ccc(O)cc2)CC1,active: 5.86 µM
11,O=C1NC(=O)C2(Cc3ccccc3N3CCCC32)C(=O)N1c1cccc(Cl)c1 (configuration not stated),inactive
12,CC(=O)NC(c1ccccc1)c1cc(Cl)c2cccnc2c1O (configuration not stated),active: 0.828 µM
13,O=C(Nc1ccccc1Cl)O/N=C(/c1ccccc1)c1ccccn1,"inconclusive [inhibitor, partial curve, poor fit]"
14,COc1ccc(CC(=O)N2CCN(c3ccccn3)CC2)cc1OC,inactive
15,Nn1c(COc2ccccc2F)nnc1SCC(=O)NC1CCS(=O)(=O)C1 (configuration not stated),inactive
16,Cc1cc2c(C)nc(-c3ccccc3)nc2o1,inactive
17,CCOc1cc(/C=N/NC(=O)Cn2nc([N+](=O)[O-])cc2C)ccc1OCc1ccc(F)cc1,"inconclusive [inhibitor, single point]"
18,COc1ccccc1CO/N=C/NC(=O)c1c(OC)ccnc1Oc1ccc(F)cc1,"inconclusive [inhibitor, partial curve]"
19,CCCN(CC(=O)Nc1ccccc1C)C(=O)C1CCN(c2ncnc3sc(C)c(C)c23)CC1,"inconclusive [inhibitor, partial curve]"
20,CC(=O)N1CCCc2cc(S(=O)(=O)N3CCCC(C(=O)Nc4cc(C)ccc4C)C3)ccc21 (configuration not stated),"inconclusive [inhibitor, partial curve]"
21,c1ccc(COCCC2CO2)cc1 (configuration not stated),inactive
22,CC1CCN(C(=O)CN2C(=O)NC(c3ccccc3)(c3ccccc3)C2=O)CC1,"inconclusive [inhibitor, single point]"
23,COc1ccc(CCNC(=O)c2nnc(Cc3c(F)cccc3Cl)o2)cc1OC,"inconclusive [inhibitor, single point]"
24,COc1cccc(C2CC(c3ccccc3Cl)n3ncnc3N2)c1 (configuration not stated),inactive

row,Compound,Potency
1,OCCCc1cn(CC2CCCCC2)nn1,inactive
2,CN1CCN(c2ccc(S(=O)(=O)N3CCCCC3)cc2NC(=O)COc2cccc(Cl)c2)CC1,active: 10.4 µM
3,CC(C)CCN1NC2(CCCC(C)C2)NC1=S (configuration not stated),"inconclusive [inhibitor, single point]"
4,CCOC(=O)c1nn(-c2ccc(C)c(C)c2)cc1O,inactive
5,OCCC1CN(Cc2cnc(-c3ccccc3)s2)CCN1Cc1ccccc1 (configuration not stated),inactive
6,CN(C)Cc1cc(C(C)(C)C)c(O)c(C(C)(C)C)c1,inactive
7,COC(=O)C/C(C)=N/Nc1ccc(S(=O)(=O)N2CCCC2)cc1[N+](=O)[O-],inactive
8,S=C(NNC(=S)NC1CC2CCC1C2)NC1CC2C=CC1C2 (configuration not stated),"inconclusive [inhibitor, full curve, poor fit]"
9,Cn1ccsc1=NC(=O)c1cc(S(=O)(=O)N2CCOCC2)ccc1Cl,"inconclusive [inhibitor, single point]"
10,CCCCn1c(O)c(C(C)=NCCCN(CC)CC)c(=O)[nH]c1=O,"inconclusive [inhibitor, single point]"
11,Cc1ccc(N(C(=O)CNC(=O)c2ccco2)C(C(=O)NC2CCCCC2)c2cccnc2)cc1C (configuration not stated),"inconclusive [inhibitor, partial curve, poor fit]"
12,Cc1ccc(Nc2nc(N)c([N+](=O)[O-])c(NCc3ccccc3)n2)cc1,"inconclusive [inhibitor, single point]"
13,COc1ccc2nc3cccc(OC)c3nc2c1,"inconclusive [inhibitor, single point]"
14,CCOc1ccccc1/C=C/c1onc(C)c1S(=O)(=O)N1CCC(C(=O)N2CCCCCC2)CC1,active: 7.38 µM
15,CCOC(=O)c1cc2sc(C)cc2n1CC(=O)Nc1cccc(C)c1C,"inconclusive [inhibitor, single point]"
16,Cc1ccc(NC(=S)NC2CC3CCC(C2)N3Cc2ccco2)cc1C (configuration not stated),"inconclusive [inhibitor, partial curve, poor fit]"
17,Cc1csc(N2CCN(c3cc4c(cc3Cl)nc(-c3ccncc3)n4CCCN3CCCC3)CC2)n1,"inconclusive [inhibitor, full curve]"
18,S=C(NCc1ccncc1)Nc1ccc(Cl)cc1Cl,inactive
19,NC(N)=NS(=O)(=O)c1ccc(NC(=S)NC(=O)Cc2ccc(Cl)cc2)cc1,inactive
20,COC(=O)c1c(NC(=O)Cn2cc([N+](=O)[O-])cn2)sc2c1CCC2,inactive
21,CC1CCC(N2CCN(S(=O)(=O)Cc3ccccc3)CC2)CC1 (configuration not stated),"inconclusive [inhibitor, single point]"
22,Cc1ccc(NC(=S)NC(=O)c2ccc(-c3ccc(Cl)cc3)o2)c(O)c1,"inconclusive [inhibitor, partial curve, poor fit]"
23,Nc1nc(Cl)cc(N2CCCC2)n1,inactive
24,COc1cc(NS(=O)(=O)c2ccc(OC)c(C)c2C)c(OC)cc1Cl,"inconclusive [inhibitor, single point]"
